This passage reports binding results from publication PMC11558143.

Chains of the proteins cited; added tags and fusions are not shown. Residues count along the entry.
UniProt Q00560, residues 23-917: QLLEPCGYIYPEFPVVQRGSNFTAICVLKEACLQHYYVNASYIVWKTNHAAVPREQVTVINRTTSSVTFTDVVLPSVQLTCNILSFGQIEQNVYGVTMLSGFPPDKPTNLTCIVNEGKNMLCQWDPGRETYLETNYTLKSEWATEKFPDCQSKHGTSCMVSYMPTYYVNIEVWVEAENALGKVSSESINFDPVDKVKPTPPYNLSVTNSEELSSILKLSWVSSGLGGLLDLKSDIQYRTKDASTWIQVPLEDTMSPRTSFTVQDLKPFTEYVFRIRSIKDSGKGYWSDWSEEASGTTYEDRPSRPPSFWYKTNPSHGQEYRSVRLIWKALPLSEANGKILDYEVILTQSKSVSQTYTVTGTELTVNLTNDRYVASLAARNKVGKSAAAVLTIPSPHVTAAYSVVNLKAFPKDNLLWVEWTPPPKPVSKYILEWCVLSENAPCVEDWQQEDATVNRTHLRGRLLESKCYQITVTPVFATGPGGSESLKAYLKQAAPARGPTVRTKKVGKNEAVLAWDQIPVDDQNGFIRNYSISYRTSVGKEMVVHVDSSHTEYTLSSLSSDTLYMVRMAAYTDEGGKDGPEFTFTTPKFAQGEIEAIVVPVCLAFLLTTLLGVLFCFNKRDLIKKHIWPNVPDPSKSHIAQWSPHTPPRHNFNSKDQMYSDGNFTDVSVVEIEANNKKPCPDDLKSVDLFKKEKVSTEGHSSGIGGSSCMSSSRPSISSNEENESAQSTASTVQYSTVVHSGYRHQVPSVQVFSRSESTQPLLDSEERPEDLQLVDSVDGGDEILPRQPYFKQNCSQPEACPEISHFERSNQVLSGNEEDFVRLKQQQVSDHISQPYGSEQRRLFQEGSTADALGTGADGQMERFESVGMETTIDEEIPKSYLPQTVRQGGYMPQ

Assay [1] deals with Flag-GP130 (glycoprotein 130) (UniProt Q00560). Kind of assay: co-IP; HEK293T transfected with IL23R and GP130, with or without Orm2 (100 ng/mL) treatment.
For assay [2], the target named is GP130 (glycoprotein 130), endogenous in BAC cells (mouse (endogenous in BAC)) (UniProt Q00560). Kind of assay: co-IP; BAC cells, endogenous IL23R and GP130, with or without Orm2 (100 ng/mL) treatment.
The target in assay [3] is Flag-GP130 (glycoprotein 130) (UniProt Q00560). Nature of the assay: co-IP; HEK293T co-transfected with HA-IL23R and Flag-GP130; receptors captured on anti-Flag and anti-HA agarose beads, washed; Orm2, Orm2-6mut or Orm2-D178E protein added to the beads (0.1 µg/mL, 2 h), washed with RIPA, Western blot; only the binder purified. For orientation: In western blotting, separated proteins are transferred to a membrane and probed.

The target of assay [4] is T1, HA-IL23R (interleukin 23 receptor) (UniProt Q8K4B4).
T1 sequence: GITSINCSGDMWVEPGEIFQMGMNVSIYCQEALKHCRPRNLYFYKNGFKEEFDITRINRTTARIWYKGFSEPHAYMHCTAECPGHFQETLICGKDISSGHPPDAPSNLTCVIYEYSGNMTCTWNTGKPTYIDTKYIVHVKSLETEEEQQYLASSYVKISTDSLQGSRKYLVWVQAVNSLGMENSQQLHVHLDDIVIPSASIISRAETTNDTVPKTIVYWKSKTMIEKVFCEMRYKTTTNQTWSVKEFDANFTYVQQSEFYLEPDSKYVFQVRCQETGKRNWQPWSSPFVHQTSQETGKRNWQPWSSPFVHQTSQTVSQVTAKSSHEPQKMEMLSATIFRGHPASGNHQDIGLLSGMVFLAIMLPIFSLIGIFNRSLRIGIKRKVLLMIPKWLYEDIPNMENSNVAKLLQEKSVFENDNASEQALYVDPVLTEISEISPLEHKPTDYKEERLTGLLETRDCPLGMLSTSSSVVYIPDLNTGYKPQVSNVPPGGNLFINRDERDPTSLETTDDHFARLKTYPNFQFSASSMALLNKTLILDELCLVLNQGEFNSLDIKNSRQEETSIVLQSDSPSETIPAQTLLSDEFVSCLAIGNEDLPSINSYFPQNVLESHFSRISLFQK
The assay is described as above.

Assay [5] has as its target T2, IL23R (interleukin 23 receptor), endogenous in BAC cells (mouse (endogenous in BAC)) (UniProt Q8K4B4).
T2 sequence: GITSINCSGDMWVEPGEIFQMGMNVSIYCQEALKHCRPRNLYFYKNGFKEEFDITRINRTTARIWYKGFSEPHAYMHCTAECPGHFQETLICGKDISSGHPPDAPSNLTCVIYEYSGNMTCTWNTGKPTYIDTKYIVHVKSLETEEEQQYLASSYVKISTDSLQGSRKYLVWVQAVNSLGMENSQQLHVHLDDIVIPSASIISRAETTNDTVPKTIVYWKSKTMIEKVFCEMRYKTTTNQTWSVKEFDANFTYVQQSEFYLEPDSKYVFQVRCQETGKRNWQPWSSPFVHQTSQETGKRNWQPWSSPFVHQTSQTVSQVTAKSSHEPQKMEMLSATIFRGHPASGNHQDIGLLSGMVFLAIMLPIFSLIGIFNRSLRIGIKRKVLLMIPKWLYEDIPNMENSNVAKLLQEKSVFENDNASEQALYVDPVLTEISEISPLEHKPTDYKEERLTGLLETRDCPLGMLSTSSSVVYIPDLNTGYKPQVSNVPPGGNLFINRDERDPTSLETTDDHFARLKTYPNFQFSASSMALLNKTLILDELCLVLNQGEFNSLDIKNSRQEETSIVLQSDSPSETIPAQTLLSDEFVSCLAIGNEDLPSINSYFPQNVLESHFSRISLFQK
Kind of assay: co-IP; BAC cells with endogenous GP130 and IL23R; how Orm2 was supplied is not told.

The target in assay [6] is GP130 (glycoprotein 130), endogenous in BAC cells (mouse (endogenous in BAC)) (UniProt Q00560). The assay is described as above.
Assay [7] deals with Flag-GP130 (glycoprotein 130) (UniProt Q00560). Nature of the assay: co-IP; HEK293T transfected with Flag-GP130 or IL23R, lysed in RIPA buffer; receptor captured on anti-Flag or anti-HA agarose beads at 4 °C overnight, washed; Orm2 added to the beads at 0.1 µg/mL for 2 h, washed with RIPA, Western blot; only the binder purified.
In assay [8] the target is T1, HA-IL23R (interleukin 23 receptor). The description is as above.

Results are given in words; binding and its absence hold for the method and conditions named. In cells and extracts the contact can be indirect. Some binding calls cover weakened binding; strength is not graded here. For part of these data: Tags and fused reporters may be left off the sequences shown.

B1: HA-IL23R (interleukin 23 receptor) (receptor, UniProt Q8K4B4 24-644)
chain: GITSINCSGDMWVEPGEIFQMGMNVSIYCQEALKHCRPRNLYFYKNGFKEEFDITRINRTTARIWYKGFSEPHAYMHCTAECPGHFQETLICGKDISSGHPPDAPSNLTCVIYEYSGNMTCTWNTGKPTYIDTKYIVHVKSLETEEEQQYLASSYVKISTDSLQGSRKYLVWVQAVNSLGMENSQQLHVHLDDIVIPSASIISRAETTNDTVPKTIVYWKSKTMIEKVFCEMRYKTTTNQTWSVKEFDANFTYVQQSEFYLEPDSKYVFQVRCQETGKRNWQPWSSPFVHQTSQETGKRNWQPWSSPFVHQTSQTVSQVTAKSSHEPQKMEMLSATIFRGHPASGNHQDIGLLSGMVFLAIMLPIFSLIGIFNRSLRIGIKRKVLLMIPKWLYEDIPNMENSNVAKLLQEKSVFENDNASEQALYVDPVLTEISEISPLEHKPTDYKEERLTGLLETRDCPLGMLSTSSSVVYIPDLNTGYKPQVSNVPPGGNLFINRDERDPTSLETTDDHFARLKTYPNFQFSASSMALLNKTLILDELCLVLNQGEFNSLDIKNSRQEETSIVLQSDSPSETIPAQTLLSDEFVSCLAIGNEDLPSINSYFPQNVLESHFSRISLFQK
In the case of B1, the binding entry in assay [1] is given as “binds”.

B2: IL23R (interleukin 23 receptor), endogenous in BAC cells (receptor, UniProt Q8K4B4 24-644)
chain: GITSINCSGDMWVEPGEIFQMGMNVSIYCQEALKHCRPRNLYFYKNGFKEEFDITRINRTTARIWYKGFSEPHAYMHCTAECPGHFQETLICGKDISSGHPPDAPSNLTCVIYEYSGNMTCTWNTGKPTYIDTKYIVHVKSLETEEEQQYLASSYVKISTDSLQGSRKYLVWVQAVNSLGMENSQQLHVHLDDIVIPSASIISRAETTNDTVPKTIVYWKSKTMIEKVFCEMRYKTTTNQTWSVKEFDANFTYVQQSEFYLEPDSKYVFQVRCQETGKRNWQPWSSPFVHQTSQETGKRNWQPWSSPFVHQTSQTVSQVTAKSSHEPQKMEMLSATIFRGHPASGNHQDIGLLSGMVFLAIMLPIFSLIGIFNRSLRIGIKRKVLLMIPKWLYEDIPNMENSNVAKLLQEKSVFENDNASEQALYVDPVLTEISEISPLEHKPTDYKEERLTGLLETRDCPLGMLSTSSSVVYIPDLNTGYKPQVSNVPPGGNLFINRDERDPTSLETTDDHFARLKTYPNFQFSASSMALLNKTLILDELCLVLNQGEFNSLDIKNSRQEETSIVLQSDSPSETIPAQTLLSDEFVSCLAIGNEDLPSINSYFPQNVLESHFSRISLFQK
Turning to B2, the binding entry in assay [2] is “binds”.

B3: Orosomucoid 2 (Orm2), recombinant HA-tagged protein (ligand, UniProt P07361 19-207)
chain: QNPEHVNITIGDPITNETLSWLSDKWFFIGAAVLNPDYRQEIQKTQMVFFNLTPNLINDTMELREYHTIDDHCVYNSTHLGIQRENGTLSKYVGGVKIFADLIVLKMHGAFMLAFDLKDEKKRGLSLNAKRPDITPELREVFQKAVTHVGMDESEIIFVDWKKDRCSQQEKQQLELEKETKKDPEEGQA
For the molecule B3, the binding result in assay [3], in assay [4], in assay [5], in assay [6], in assay [7] and in assay [8] was “binds” each time.

B4: Orm2-D178E, with HA and 6xHis tag (ligand, UniProt P07361 19-207)
chain: QNPEHVNITIGDPITNETLSWLSDKWFFIGAAVLNPDYRQEIQKTQMVFFNLTPNLINDTMELREYHTIDDHCVYNSTHLGIQRENGTLSKYVGGVKIFADLIVLKMHGAFMLAFDLKDEKKRGLSLNAKRPDITPELREVFQKAVTHVGMDESEIIFVEWKKDRCSQQEKQQLELEKETKKDPEEGQA
With B4, the binding result in assay [3] and in assay [4] was “binds” throughout.

B5: Orm2-6mut (T71A, H166A, D170A, K136A, G113A and E138A), HA-tagged (ligand, UniProt P07361 19-207)
chain: QNPEHVNITIGDPITNETLSWLSDKWFFIGAAVLNPDYRQEIQKTQMVFFNLAPNLINDTMELREYHTIDDHCVYNSTHLGIQRENGTLSKYVGAVKIFADLIVLKMHGAFMLAFDLADAKKRGLSLNAKRPDITPELREVFQKAVTAVGMAESEIIFVDWKKDRCSQQEKQQLELEKETKKDPEEGQA
Turning to B5, the binding result in assay [3] and in assay [4] was “no binding (tested: 0.1 µg mL^-1)” in each case.
